Assay results: PubChem BioAssay (Tox21)
Where “and” joins values, the source holds several entries; their conditions need not be identical. Equal values may be shown once. The shares of active, inactive and inconclusive entries below differ from those in the screen. For some assays here: Where the call is inconclusive, the potency comes from a doubtful curve fit. Calls of active or inactive are those of the source. Unless noted, calls come from the whole dose curve; as a rule, active = well fitted curve in the direction sought with a large enough effect in the repeat runs; inconclusive = weak or mixed curves; inactive = no such curve, though single readings can be large; an effect the other way counts as inactive or inconclusive.

Experiments:
[1] = qHTS assay to identify small molecule agonists of H2AX (AID 1224845; active = well fitted activation curve with a large enough effect in the signal ratio in the repeat runs, not every such curve was filed as active; inconclusive = weak or mixed curves; the % refers to the signal ratio; note: potency is the fitted concentration of half-maximal effect; for activation (H2AX phosphorylation): % is set by controls: 0 for no effect and ±100 for the full control effect); details: CHO-K1 phospho-H2AX Ser139 HTRF, 3 h; for Potency: activation (H2AX phosphorylation): at 154 µM (top of the series) unless noted
Method in brief: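 Phospho-H2AX Ser139 measured by HTRF (ex 320 nm; em 665 and 620 nm) after 24 hr antibody incubation. Compounds, 15 concentrations, 0.76% DMSO, were applied to CHO-K1 cells for 3hr at 37C before lysis.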

[2] = A CellTox Green Cytotoxicity Assay to monitor cytotoxicity in HepG2 cells - 40 hour (AID 1224879); details: CellTox Green fluorescence; series mostly up to 76.8 µM; note: potency is the fitted concentration of half-maximal effect; nearly all actives have a fitted effect of over 40% in size
Method in brief: (§1)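 HepG2, 600 cells/well premixed w/ CellTox Green; 5 h settle, 37 C/5% CO2; pintool cpd add (DMSO); 37 C, 40 h; fluorescence read at 0, 8, 16, 24, 32, 40 h.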

[3] = qHTS assay to identify small molecule agonists of the estrogen related receptor (ERR) signaling pathway from Tox21 library (AID 1224849; calls by dose curve; note: % is set by controls: 0 for no effect and ±100 for the full control effect; nearly all actives have a fitted effect of over 15% in size); details: ERR reporter cell line, ONE-Glo luciferase, 18 h; at 42.5 µM (top of the series)
Method in brief: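 Luminescence readout (ONE-Glo, 30 min RT) after 18 h compound exposure at 37 C of NTP-supplied ERR reporter cells; cells were plated 6 h before compound addition by pin tool.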

[4] = A CellTox Green Cytotoxicity Assay to monitor cytotoxicity in HepG2 cells - 16 hour (AID 1224876); details: CellTox Green fluorescence; series mostly up to 76.8 µM; note: potency is the fitted concentration of half-maximal effect; nearly all actives have a fitted effect of over 45% in size
Method in brief: as §1

[5] = qHTS assay to identify small molecule agonists of the hypoxia (HIF-1) signaling pathway (AID 1224846; active = well fitted activation curve with a large enough effect in the signal ratio in the repeat runs, not every such curve was filed as active; inconclusive = weak or mixed curves; the % refers to the signal ratio; note: potency is the fitted concentration of half-maximal effect); details: HRE-bla ME-180 cells, beta-lactamase ratio, 17 h; activation: at 76.8 µM (top of the series) unless noted
Method in brief: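 Beta-lactamase FRET read-out (CCF4-AM substrate) from ME-180 cells carrying an HRE-driven bla reporter, after 17 hrs compound exposure at 37C/5% CO2. Cells were seeded at 2,000 per well in 0.5% dialyzed FBS medium and preincubated 5 hrs.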

[6] = qHTS assay to identify small molecule agonists of H2AX - cell viability counter screen (AID 1224847; calls by dose curve; note: potency is the fitted concentration of half-maximal effect; nearly all actives have a fitted effect of over 30% in size); details: CHO-K1 viability, CellTiter-Glo luminescence, 3 h; series mostly up to 154 µM
Method in brief: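 Cells plated first: CHO-K1, 1000 per well in 10% FBS medium, incubated overnight at 37C. Then 15-point compound titration added (final DMSO 0.76%) for 3 hr. Finally CellTiter-Glo added and luminescence read.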

[7] = qHTS RealTime-Glo MT Cell Viability Assay in HEK293 cells - 32 hour (AID 1224868); details: RealTime-Glo luminescence; series mostly up to 76.8 µM; note: potency is the fitted concentration of half-maximal effect; nearly all actives have a fitted effect of over 50% in size
Method in brief: (§2)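 Viability tracked continuously by luminescence as live cells reduce a prosubstrate for NanoLuc; HEK293 cells preincubated 5 h, compound-treated at 37 C, and read at 0, 8, 16, 24, 32 and 40 h.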

[8] = A CellTox Green Cytotoxicity Assay to monitor cytotoxicity in HEK293 cells - 40 hour (AID 1224871); details: CellTox Green fluorescence; series mostly up to 76.8 µM; note: potency is the fitted concentration of half-maximal effect; nearly all actives have a fitted effect of over 45% in size
Method in brief: (§3)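 Read-out: fluorescence of a cell-impermeant cyanine dye staining DNA of dead cells, proportional to cytotoxicity. HEK293, 600 cells/well with reagent, compound (23 nL DMSO) added after 5 h; reads at 0, 8, 16, 24, 32, 40 h.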

[9] = qHTS RealTime-Glo MT Cell Viability Assay in HEK293 cells - 16 hour (AID 1224872); details: RealTime-Glo luminescence; series mostly up to 76.8 µM; note: potency is the fitted concentration of half-maximal effect; nearly all actives have a fitted effect of over 50% in size
Method in brief: as §2

[10] = qHTS RealTime-Glo MT Cell Viability Assay in HepG2 cells - 8 hour (AID 1224873); details: RealTime-Glo luminescence; series mostly up to 76.8 µM; note: potency is the fitted concentration of half-maximal effect; nearly all actives have a fitted effect of over 55% in size
Method in brief: (§4)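 Real-time viability: cells seeded at 600 per well together with NanoLuc and cell-permeant prosubstrate, compounds added after 5 h incubation. Luminescence tracked at 0, 8, 16, 24, 32 and 40 h of exposure.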

[11] = A CellTox Green Cytotoxicity Assay to monitor cytotoxicity in HEK293 cells - 24 hour (AID 1224875); details: CellTox Green fluorescence; series mostly up to 76.8 µM; note: potency is the fitted concentration of half-maximal effect; nearly all actives have a fitted effect of over 45% in size
Method in brief: as §3

[12] = qHTS RealTime-Glo MT Cell Viability Assay in HepG2 cells - 32 hour (AID 1224877); details: RealTime-Glo luminescence; series mostly up to 76.8 µM; note: potency is the fitted concentration of half-maximal effect; nearly all actives have a fitted effect of over 55% in size
Method in brief: (§5)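 Viability was tracked continuously by NanoLuc luminescence from prosubstrate reduced by living HepG2 cells, at successive time points over 40 h of compound exposure. Cells with reagent were preincubated 5 h at 37 °C before compound addition.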

[13] = A CellTox Green Cytotoxicity Assay to monitor cytotoxicity in HEK293 cells - 32 hour (AID 1224881); details: CellTox Green fluorescence; series mostly up to 76.8 µM; note: potency is the fitted concentration of half-maximal effect; nearly all actives have a fitted effect of over 40% in size
Method in brief: as §3

[14] = qHTS assay to identify small molecule antagonists of the estrogen related receptor (ERR) signaling pathway from Tox21 library (AID 1224848); details: ERR reporter cell line, luciferase antagonist mode, 18 h; series mostly up to 92.4 µM; note: potency is the fitted concentration of half-maximal effect; nearly all actives have a fitted effect of over 50% in size
Method in brief: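 Luciferase luminescence (ONE-Glo, 30 min room temperature) was the read-out. Cells of the NTP-supplied ERR line, 2,000 per well, were given 6 h at 37 C before compound addition in DMSO and 18 h exposure at 37 C.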

[15] = qHTS RealTime-Glo MT Cell Viability Assay in HepG2 cells - 24 hour (AID 1224867); details: RealTime-Glo luminescence; series mostly up to 76.8 µM; note: potency is the fitted concentration of half-maximal effect; nearly all actives have a fitted effect of over 50% in size
Method in brief: as §5

[16] = qHTS RealTime-Glo MT Cell Viability Assay in HepG2 cells - 40 hour (AID 1224870); details: RealTime-Glo luminescence; series mostly up to 76.8 µM
Method in brief: as §4

[17] = qHTS RealTime-Glo MT Cell Viability Assay in HEK293 cells - 40 hour (AID 1224874); details: RealTime-Glo luminescence; max response: hits give low values
Method in brief: (§6)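 Luminescence readout at each listed time point; HEK293, 600 cells/well, RealTime-Glo MT reagent added with cells; compounds pinned (23 nL in DMSO) after 5 h at 37 C; continuous culture at 37 C.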

[18] = qHTS RealTime-Glo MT Cell Viability Assay in HEK293 cells - 0 hour (AID 1224880); details: RealTime-Glo luminescence; series mostly up to 76.8 µM; note: potency is the fitted concentration of half-maximal effect; nearly all actives have a fitted effect of over 45% in size
Method in brief: as §6

[19] = A CellTox Green Cytotoxicity Assay to monitor cytotoxicity in HepG2 cells - 24 hour (AID 1224878); details: CellTox Green fluorescence; series mostly up to 76.8 µM
Method in brief: as §1
Tags give direction and shape of the fitted curve or compound fluorescence and quenching.

CC(=O)C1=C(C)[C@@H]2C[C@@]3(C1)[C@H](C)CC[C@H]3C2(C)C
inactive: activation (H2AX phosphorylation) ([1]; at 154 µM (top of the series)) -1.08%
inconclusive: Potency [2] 64.4 µM [activator, partial curve, poor fit] and 54.9 µM [activator, partial curve, poor fit]

O=C(O)c1ccc(-n2nc(-c3ccccc3O)nc2-c2ccccc2O)cc1
inactive: activity change, positive = activation [3] -48.9%

COc1cc(C=C2CCC/C(=C\c3ccc(O)c(OC)c3)C2=O)ccc1O
inconclusive: Potency [4] 23.9 µM [activator, single point]

COc1cccc2c1C(=O)c1c(O)c3c(c(O)c1C2=O)C[C@@](O)(C(=O)CO)C[C@@H]3O[C@H]1C[C@H](N)[C@H](O[C@@H]2CCCCO2)[C@H](C)O1
active: Potency [2] 1.51 µM

C[C@@H](O[C@H]1OCCN(Cc2n[nH]c(=O)[nH]2)[C@H]1c1ccc(F)cc1)c1cc(C(F)(F)F)cc(C(F)(F)F)c1
active: Potency [7] 16.9 µM | Potency [9] 19 µM
inconclusive: Potency [1] 61.9 µM [activator, single point] | Potency [5] 26.8 µM [falling, single point] | Potency [6] 55.2 µM [cytotoxic, single point] | Potency [8] 26.8 µM [activator, single point] | Potency [10] 19 µM [falling, partial curve] | Potency [11] 26.8 µM [activator, single point] | Potency [12] 26.8 µM [cytotoxic, single point] | Potency [13] 26.8 µM [activator, single point]

Nc1c(N=Nc2ccc(-c3ccc(N=Nc4cc(S(=O)(=O)O)c5ccccc5c4N)cc3)cc2)cc(S(=O)(=O)O)c2ccccc12
inconclusive: Potency [1] 50.5 µM [cytotoxic, partial curve] | Potency [5] 48.9 µM [activator, single point] | Potency [17] 43.6 µM [cytotoxic, partial curve] | Potency [18] 21.9 µM [falling, partial curve]
active: Potency [14] 24.3 µM | Potency [15] 48.9 µM | Potency [7] 38.9 µM | Potency [16] 48.9 µM | Potency [12] 48.9 µM

CN(C)c1ccc(C2(c3ccc(N(C)C)cc3)OC(=O)c3cc(N(C)C)ccc32)cc1
inconclusive: Potency [1] 100 µM [fluorescent, partial curve] | Potency [5] 13.8 µM [falling, full curve] | Potency [15] 24.5 µM [falling, partial curve] | Potency [16] 24.5 µM [falling, full curve] | Potency [8] 1.09 µM [activator, partial curve, poor fit] | Potency [12] 24.5 µM [cytotoxic, partial curve]

C=C1CC[C@H](O)C/C1=C\C=C1/CCC[C@]2(C)[C@@H]([C@H](C)CCCC(C)C)CC[C@@H]12
active: Potency [6] 112 µM | Potency [9] 38.5 µM
inconclusive: Potency [1] 99.8 µM [inhibitor, single point] | Potency [5] 61.1 µM [falling, single point] | Potency [8] 48.5 µM [activator, single point]

Nc1ccccc1O
inconclusive: Potency [1] 62.7 µM [falling, partial curve] | Potency [5] 54.2 µM [single point] | Potency [14] 60.3 µM [inhibitor, partial curve] | Potency [7] 8.59 µM [rising, partial curve] | Potency [17] 5.42 µM [rising, full curve]

O=C(Nc1ccc2c(O)c(N=Nc3ccc(N=Nc4ccc(S(=O)(=O)O)cc4)cc3)c(S(=O)(=O)O)cc2c1)c1ccccc1
inconclusive: Potency [1] 89.8 µM [cytotoxic, partial curve] | Potency [5] 49 µM [rising, partial curve, poor fit] | Potency [14] 27.3 µM [inhibitor, partial curve] | Potency [15] 49 µM [falling, partial curve, poor fit] | Potency [16] 49 µM [falling, partial curve, poor fit] | Potency [12] 54.9 µM [cytotoxic, partial curve, poor fit] | Potency [18] 49 µM [falling, partial curve, poor fit]

N=C1N=C(N)c2ccccc21
inconclusive: Potency [1] 101 µM [activator, partial curve] | Potency [5] 54.9 µM | Potency [6] 1.6 µM [cytotoxic, single point] | Potency [15] 24.5 µM [falling, partial curve] | Potency [16] 43.6 µM [falling, partial curve] | Potency [9] 34.7 µM [cytotoxic, partial curve] | Potency [12] 34.7 µM [cytotoxic, partial curve] | Potency [19] 49 µM [activator, partial curve, poor fit]
active: Potency [17] 24.5 µM
